Data on 99 compounds can be found in article PMC6919601, “Identification of Plasmodium dipeptidyl aminopeptidase allosteric inhibitors by high throughput screening” (PLoS ONE, 2019).

The campaign covered roughly 110,000 compounds. About 230 (0.21%) showed an effect of 50% or more. This is one part of the list.
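Also: 30 min substrate incubation versus DMSO and 10 µM JCP410 controls.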

In the assay the target is DPAP1 (Plasmodium falciparum, UniProt Q8IIJ9). Kind of assay: primary screen, percent inhibition; read by cleavage of a fluorogenic dipeptide substrate; higher = more effect of the substance. The arrangement: species or system P. falciparum D10 trophozoite lysates; single well.
DPAP1, sequence (Q8IIJ9 whole entry, looked up): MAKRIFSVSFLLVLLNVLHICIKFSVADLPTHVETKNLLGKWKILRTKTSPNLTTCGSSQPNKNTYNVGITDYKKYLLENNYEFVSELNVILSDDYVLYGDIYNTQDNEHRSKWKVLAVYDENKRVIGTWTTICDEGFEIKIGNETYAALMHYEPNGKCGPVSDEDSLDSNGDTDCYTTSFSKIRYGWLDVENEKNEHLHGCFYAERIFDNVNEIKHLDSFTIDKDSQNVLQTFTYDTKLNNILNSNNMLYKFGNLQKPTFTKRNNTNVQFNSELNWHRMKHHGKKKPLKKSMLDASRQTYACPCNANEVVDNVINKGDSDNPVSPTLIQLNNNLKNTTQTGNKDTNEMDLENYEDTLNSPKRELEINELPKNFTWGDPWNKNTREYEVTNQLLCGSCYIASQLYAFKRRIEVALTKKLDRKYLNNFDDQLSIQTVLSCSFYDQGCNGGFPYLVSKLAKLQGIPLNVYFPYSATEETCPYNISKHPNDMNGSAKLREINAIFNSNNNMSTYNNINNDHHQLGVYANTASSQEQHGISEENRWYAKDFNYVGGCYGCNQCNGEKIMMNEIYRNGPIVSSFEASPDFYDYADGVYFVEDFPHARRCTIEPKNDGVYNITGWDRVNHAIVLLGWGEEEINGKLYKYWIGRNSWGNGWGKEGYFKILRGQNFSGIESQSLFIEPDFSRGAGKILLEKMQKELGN
Take `Cc1ccc(C2=NC(c3ccsc3)NC(c3ccccc3O)C2)cc1` (stereo not drawn): the “% Inhibition @ 10 uM” value is recorded as -2.45%.
Under `N#Cc1c(N)nc(SCC(=O)OCc2ccccc2)c(C#N)c1-c1ccccc1` stands 4.63%; under `CC(=O)N1CCC(NCCc2ccc(F)cc2)CC1`, 7.92%.
The value for `O=C(NCc1ccc2c(c1)OCO2)C1C2C=CC3(CN(Cc4cccs4)C(=O)C13)O2` (stereo not drawn) was 1.07%.
Under `CCCC1CCc2c(sc(NC(=O)C3CCCCC3C(=O)O)c2C(N)=O)C1` (stereo not drawn) stands 1.34%; under `O=C(/C=C/c1ccc(Cl)cc1)NCc1ccco1`, 10.2%.
`Cc1nc2ccc(S(=O)(=O)CCC(=O)NC3CCCc4ccccc43)cc2s1` (stereo not drawn): the “% Inhibition @ 10 uM” value is given as 1.95%.
Under `COC(=O)C1=C(C(C)=O)C(c2ccccc2F)n2nnnc2N1` (stereo not drawn) stands -2.98%; under `Cc1nn(-c2ccccc2)c2nc(C3CC3)cc(C(=O)NCCc3ccccc3)c12`, -4.7%; under `O=C(O)CCC(=O)N1CCN(c2ccccc2)CC1`, -2.75%.
The value for `Cc1cccc(S(=O)(=O)Nc2ccc3c(c2)OCCO3)c1` was -11.5%; that for `COc1cc2c(cc1C(c1ccccc1)(c1ccccc1)C1C=CC=CC1)NC(C)(C)C=C2C` (stereo not drawn) was 5.03%; that for `O=C1CC(c2ccccc2)c2c(ccc3ccccc23)N1` (stereo not drawn) was -8.85%.
The value for `Cc1ccc(CN2CC(C)OC(C)C2)cc1` (stereo not drawn) was 7.2%; that for `Cc1ccc(C)c(S(=O)(=O)Nc2ccc(C(=O)N3CCN(C)CC3)cc2)c1` was -3.77%.
On to `CC(C(=O)NCc1cccnc1)n1ccc2cc(S(=O)(=O)N3CCCC3)ccc21` (stereo not drawn), for which the “% Inhibition @ 10 uM” value is on record as -0.665%.
Under `CCn1c(NC(=O)c2cccc(Cn3cc(Cl)cn3)c2)nc2ccccc21` stands 0.64%; under `O=C1OC(/C=C/c2ccccc2)=NC/1=C\c1cccc2ccccc12`, 5.32%; under `Cc1ccc(C(=O)N/C(=C/c2ccccc2)C(=O)NCCCC(=O)O)cc1`, -3.33%.
The value for `CC(=O)CC(C)(C)S(=O)(=O)c1ccc(Cl)c(Cl)c1` was 1.38%; that for `COC(=O)c1c(NC(=O)c2ccccc2OC)sc2c1CCCC2` was 3.04%; that for `O=C(NCCc1ccccc1)c1cc(O)nc2ccc(S(=O)(=O)N3CCOCC3)cc12` was 5.7%.
The value for `COCC(=O)Nc1nc2nc(C)c(Cl)c(C)n2n1` was 0.401%; that for `Cc1c(O)c(S(=O)(=O)c2ccccc2)c(=O)n(-c2ccccc2)c1-c1ccccc1` was 2.38%; that for `CC(C)(C)C(=O)Nc1ccccc1C(=O)Nc1ccccc1Cl` was 2.17%.
For the compound `CC(=O)Nc1ccc(NC(=O)c2ccc(C(C)(C)C)cc2)cc1`, the “% Inhibition @ 10 uM” value is listed as -0.425%.
Under `CCCOc1ccc(Cn2cnc3ccccc32)cc1` stands 3.27%; under `O=C(Nc1nccs1)C1CCCN1S(=O)(=O)c1cccc2nsnc12` (stereo not drawn), 4.54%.
Under `CCc1ncc(C(O)c2ccccc2OC)n1C` (stereo not drawn) stands 0.812%; under `COc1ccc(CC(=O)Nc2ccccc2Br)cc1`, 1.41%.
Turning to `Cc1cc(C)n(-c2ncnc3sc(C)c(-c4ccccc4)c23)n1`, the “% Inhibition @ 10 uM” value was found to be 3.47%.
Under `O=c1oc2c3c(ccc2c2ccccc12)OCN(Cc1ccc(F)cc1)C3` stands -0.808%.
The value for `Cc1cccc(NC(=O)c2cccs2)n1` was -1.68%.
Under `Cc1cc(NS(=O)(=O)c2ccc(NC(=O)c3ccccc3C)cc2)no1` stands -3.83%; under `O=C(Cn1ncc2c1-c1ccccc1OC2)NCCOC12CC3CC(CC(C3)C1)C2`, -2.42%; under `Fc1ccccc1C1C=C(c2ccccc2OC(F)F)Nc2nnnn21` (stereo not drawn), 0.219%.
As for `O=C(c1cc(-c2ccc(Cl)cc2)nc2ccc(Br)cc12)N1CCOCC1`, the “% Inhibition @ 10 uM” value is reported as -2.32%.
`COc1ccc2nc(NC(=O)Cn3c(-c4ccccc4)cc(C(C)=O)c3C)sc2c1`: the “% Inhibition @ 10 uM” value is on record as -1.88%.
The value for `COc1ccc2ccccc2c1C1C(C#N)=C(N)OC2=C1C(=O)CC(C)(C)C2` (stereo not drawn) was 1.03%.
The value for `CC1CCCC(NC2CCN(CCc3ccccc3)CC2)C1C` (stereo not drawn) was -2.03%; that for `CC1=C(C#N)c2nc(N)c(C#N)c(C)c2/C1=C\c1ccc(-c2ccccc2)o1` was -7.09%; that for `Cc1ccc(C)c(Cn2c3ccccc3c3cnn(CC(=O)N4CCC(C)CC4)c(=O)c32)c1` was -3.35%.
Under `COc1ccc(OC)c(C2CC(=O)NC(SC)=C2C#N)c1` (stereo not drawn) stands -4.76%.
On to `C#CCNC(=O)Cn1c2ccccc2[n+]2nc(C)c(C)cc12`, for which the “% Inhibition @ 10 uM” value turned out to be 2.95%.
The value for `COc1ccccc1NC(=O)c1cccc(C)c1` was 1.63%; that for `COc1ccc(CCNC(=O)CN(c2cc(Cl)ccc2C)S(C)(=O)=O)cc1` was 5.03%; that for `CCNC(=O)/C(=C\c1ccccc1)NC(=O)c1ccccc1Cl` was -4.76%.
The value for `CCCN1C(=O)c2ccc(C(=O)c3ccc(C(=O)O)cc3)cc2C1=O` was -3.63%; that for `COc1ccc2nc(NC(=O)c3noc4c3COc3ccc(C)cc3-4)sc2c1` was 2.78%; that for `Cc1cccc(-c2nnc3c4c5c(sc4ncn23)CC(C)CC5)c1` (stereo not drawn) was -3.63%.
The value for `CCC(C)N1C(=O)S/C(=C/c2cccc(OC)c2)C1=O` (stereo not drawn) was -2.98%; that for `COc1ccccc1NC(=O)C1=C(C)NC(SCC(N)=O)=C(C#N)C1c1ccccc1Cl` (stereo not drawn) was 7.1%.
With `C=CCn1c(C)nc2c(sc3nc4c(cc32)COC(C)(C)C4)c1=O`, the “% Inhibition @ 10 uM” value stood at 7.09%.
Under `CC1CCc2c(sc(NC(=O)C(C(F)(F)F)C(F)(F)F)c2C#N)C1` (stereo not drawn) stands -3.46%; under `CCOC(=O)c1c(N)sc(C(=O)N2CCc3ccccc3C2)c1C`, -2.87%; under `Cc1ncc2c(c1O)COC(C(C)C)OC2` (stereo not drawn), -3.53%.
Under `CS(=O)(=O)c1ccc2nc(NS(=O)(=O)c3ccc(F)cc3)sc2c1` stands 3.42%; under `O=C(NCc1ccc2c(c1)OCO2)c1cccc(C(=O)NCc2ccc3c(c2)OCO3)c1`, 9.65%; under `COc1ccc(CNC(=O)c2ccc(C(C)C)cc2)cc1`, -1.61%.
In the case of `CN(C)C(=O)CSC(c1ccccc1)c1ccccc1`, the “% Inhibition @ 10 uM” value turned out to be 2.51%.
Under `CCOc1ccc(NC(=O)CSc2nc3ccc(OCC)cc3cc2C#N)cc1` stands -0.413%; under `Cc1cccc(C(=O)N/C(=C/c2ccco2)C(=O)O)c1`, -4.7%; under `Cc1ccc(CN(C(=O)c2cccs2)C2CCS(=O)(=O)C2)o1` (stereo not drawn), -2.85%.
In the case of `COc1ccc(Cc2nnc(NC(=O)c3c(-c4ccccc4)noc3C)s2)cc1OC`, the “% Inhibition @ 10 uM” value is recorded as 3.12%.
The value for `COC(=O)c1ccccc1NC(=O)C(C)Oc1ccc(C)cc1` (stereo not drawn) was 2.48%; that for `O=C(O)CC(c1ccccc1)n1cccc1` (stereo not drawn) was 1.03%.
The value for `CC(=O)N1CCN(c2cc(N3CCOCC3)c(F)cc2[N+](=O)[O-])CC1` was -4.93%.
The value for `CCOC(=O)c1c(C)nc2nn3c4c(nnc3c2c1-c1ccc(OC)cc1)C(=O)CC(C)(C)C4` was 5.02%.
Regarding `c1ccc(-c2cnc(-c3ccc(-c4cnc(-c5ccccc5)o4)cc3)o2)cc1`, the “% Inhibition @ 10 uM” value was found to be 1.66%.
As to `CCOCCCNCc1c(C(=O)O)c(C)n(Cc2ccc(F)cc2)c1C`, the “% Inhibition @ 10 uM” value worked out at 2.99%.
The value for `CN1CC[C@@](O)(c2ccccc2)[C@@H]2CCC[C@@H]21` was -2.56%; that for `CCOC(=O)c1cc(NC(=O)N(Cc2ccco2)C2CCCCC2)c(C)nc1C` was 2.62%; that for `CNC(=S)NCCc1c(C)[nH]c2ccc(Cl)cc12` was 2.85%.
Consider `O=c1c2c(-c3ccccc3)csc2nc2c3ccccc3c(NCCCN3CCOCC3)nn12`, for which the “% Inhibition @ 10 uM” value is on record as 12.2%.
Under `Oc1nnc(-c2ccc(F)cc2)c2c1Nc1nnnn1C2c1ccccc1` (stereo not drawn) stands 3.66%; under `COc1ccc(-c2nc3ccccc3[nH]2)c(OC)c1OC`, -8.06%; under `O=C(NCCNC(=O)c1ccco1)c1ccco1`, -3.65%.
Under `CC(C)(CNC(=O)C1CCCC1)CNC(=O)C1CCCC1` stands -0.116%.
Under `Cc1ccc2c(N)c(C(=O)N(c3ccccc3)c3ccccc3)sc2n1` stands -1.38%; under `COc1ccc2ccccc2c1CNc1ccc2c(c1)CCC2`, 4.28%; under `C=CCOc1ccc(/C=C2/N=C(C)C(C(=O)OCC)=C2O)cc1OC`, -3.09%.
Take `CCN(CC)C(=O)C1CCCN(CCC(C)c2ccccc2)C1` (stereo not drawn): the “% Inhibition @ 10 uM” value is on record as -5.26%.
For the compound `CCc1nc2cccnc2n1-c1ccc(CC(=O)N2CCCCCC2)cc1`, the “% Inhibition @ 10 uM” value amounted to 1.81%.
The value for `CC(C)c1ccc(C2C(C(=O)c3ccc(F)cc3)=C(O)C(=O)N2CCCCCC(=O)O)cc1` (stereo not drawn) was -0.178%; that for `C=CCn1c(SCC(=O)NCC2CCCO2)nc2scc(-c3ccc(C)o3)c2c1=O` (stereo not drawn) was 2.38%; that for `CCOc1ccccc1/C=c1\sc2nnc(-c3ccccc3Cl)n2c1=O` was 3.25%.
Regarding `C=CCNC(=O)CN(c1ccc(F)cc1)S(=O)(=O)c1ccc(C)cc1`, the “% Inhibition @ 10 uM” value is given as -2.05%.
For the compound `COc1ccccc1N1CCN(C(=O)C(c2ccccc2)c2ccccc2)CC1`, the “% Inhibition @ 10 uM” value was found to be 2.23%.
On to `CCCCNC(=O)C(CC)n1c(SCc2cccc(F)c2)nc2ccncc21` (stereo not drawn), for which the “% Inhibition @ 10 uM” value is 1.03%.
As for `Cc1cccc(-n2cnc3cc(C(=O)NCC4CCCO4)ccc32)c1` (stereo not drawn), the “% Inhibition @ 10 uM” value was -7.57%.
For the compound `CC1(C)CC(=O)C2=C(C1)N(Cc1ccco1)C(=O)C2(Nc1nc2ccccc2s1)C(F)(F)F` (stereo not drawn), the “% Inhibition @ 10 uM” value is -1.52%.
The value for `Cc1ccc(S(=O)(=O)Nc2ccc3c(c2)nc(C)n3Cc2ccccc2)cc1` was -0.67%; that for `CC1Oc2ccccc2C=C1/C=C(\NC(=O)c1ccc(Cl)cc1)C(=O)NCc1ccco1` (stereo not drawn) was -1.47%; that for `CCN(CC)CCCNC(=O)Cn1cnc2c(nc3n2CCCCC3)c1=O` was 5.92%.
The value for `COC(=O)C1C(c2ccc([N+](=O)[O-])cc2)NC(c2ccc([N+](=O)[O-])cc2)C(C(=O)OC)S1(=O)=O` (stereo not drawn) was 1.27%; that for `O=C(NCc1cccnc1)c1[nH]c2ccccc2c1Sc1ccc(Cl)cc1` was -8.95%.
The value for `CCOC(=O)c1c(NC(=O)c2nccnc2C(=O)O)sc2c1CCCC2` was 15.7%; that for `C/C(=C\C=C\c1ccccc1)C(=O)c1c(C)cc(C)nc1O` was 20.2%; that for `COCCCNC(=O)c1ccc(CS(=O)(=O)c2ccc(OC)cc2)o1` was -1.28%.
